Measured values reported in US20200017600A1 (Genmab, published 2020).

Columns and labels:
[1] = biological target: T1, Human CD38 (UniProtKB-P28907), expressed on the cell surface (human, UniProt P28907 1-300); assay: cell-based or functional assay
[2] = biological target: T1, Human CD38 (UniProtKB-P28907), …; assay: cell-based or functional assay; remark: listed apart in the source
[3] = biological target: T1, Human CD38 (UniProtKB-P28907), …; assay: cell-based or functional assay; remark: listed apart in the source
[4] = biological target: T2, Cynomolgus CD38 expressed on cynomolgus PBMCs (cynomolgus, UniProt Q5VAN0 1-301); assay: flow cytometry on cynomolgus PBMCs
T2 construct: whole, on cells

- CDC, EC50 of lysis, Daudi cells [1]: 0.25 µg/mL
- CDC, EC50 of lysis, Ramos cells [1]: 0.158 µg/mL
- CDC, EC50 of lysis, Wien-133 cells [1]: 0.193 µg/mL
- CDC, percent lysis of Ramos and Daudi cells [2]: ~50%
B1: IgG1-C (antibody)
heavy: QVQLVQSGAEVKKPGSSVKVSCKAFGGTFSSYAISWVRQAPGQGLEWMGRIIRFLGIANYAQKFQGRVTLIADKSTNTAYMELSSLRSEDTAVYYCAGEPGERDPDAVDIWGQGTMVTVSSASTKGPSVFPLAPSSKSTSGGTAALGCLVKDYFPEPVTVSWNSGALTSGVHTFPAVLQSSGLYSLSSVVTVPSSSLGTQTYICNVNHKPSNTKVDKRV[not shown - human IgG1 Fc]
light: [not shown - about 200 residues]

- CDC, EC50 of lysis, 697 cells [3]: 0.087 µg/mL
- CDC, EC50 of lysis, AML-193 cells [3]: 0.032 µg/mL
- CDC, EC50 of lysis, DOHH2 cells [3]: 0.115 µg/mL
- CDC, EC50 of lysis, Daudi cells [3]: 0.03 µg/mL
- CDC, EC50 of lysis, HL-60 cells [3]: 0.07 µg/mL
- CDC, EC50 of lysis, JVM-3 cells [3]: 0.11 µg/mL
- CDC, EC50 of lysis, JVM-13 cells [3]: 0.146 µg/mL
- CDC, EC50 of lysis, Jeko-1 cells [3]: 0.108 µg/mL
- CDC, EC50 of lysis, KG-1 cells [3]: 0.104 µg/mL
- CDC, EC50 of lysis, MEGAL cells [3]: 0.17 µg/mL
- CDC, EC50 of lysis, ML-2 cells [3]: 0.023 µg/mL
- CDC, EC50 of lysis, MOLM-13 cells [3]: 0.017 µg/mL
- CDC, EC50 of lysis, NALM-16 cells [3]: 0.022 µg/mL
- CDC, EC50 of lysis, Nomo-1 cells [3]: 0.039 µg/mL
- CDC, EC50 of lysis, Oci-AML3 cells [3]: 0.046 µg/mL
- CDC, EC50 of lysis, Oci-Ly18 cells [3]: 0.057 µg/mL
- CDC, EC50 of lysis, Oci-Ly-7 cells [3]: 0.012 µg/mL
- CDC, EC50 of lysis, Oci-Ly-19 cells [3]: 0.031 µg/mL
- CDC, EC50 of lysis, REH cells [3]: 0.039 µg/mL
- CDC, EC50 of lysis, RS4; 11 cells [3]: 0.093 µg/mL
- CDC, EC50 of lysis, Raji cells [3]: 0.036 µg/mL
- CDC, EC50 of lysis, Ramos cells [3]: 0.013 µg/mL
- CDC, EC50 of lysis, SU-DHL-4 cells [3]: 0.073 µg/mL
- CDC, EC50 of lysis, SU-DHL-8 cells [3]: 0.009 µg/mL
- CDC, EC50 of lysis, THP-1 cells [3]: 0.075 µg/mL
- CDC, EC50 of lysis, U266 cells [3]: 0.052 µg/mL
- CDC, EC50 of lysis, U937 cells [3]: 0.057 µg/mL
- CDC, EC50 of lysis, WSU-DLCL2 cells [3]: 0.345 µg/mL
- CDC, EC50 of lysis, Wien133 cells [3]: 0.015 µg/mL
- CDC, EC50 of lysis, Z-138 cells [3]: 0.106 µg/mL
- CDC, EC50 of lysis, monomac6 cells [3]: 0.093 µg/mL
- CDC, EC50 of lysis, Daudi cells [1]: 0.019 µg/mL
- CDC, EC50 of lysis, NALM-16 cells [1]: 0.022 µg/mL
- CDC, EC50 of lysis, REH cells [1]: 0.017 µg/mL
- CDC, EC50 of lysis, RS4; 11 cells [1]: 0.056 µg/mL
- CDC, EC50 of lysis, Ramos cells [1]: 0.014 µg/mL
- CDC, EC50 of lysis, U266 cells [1]: 0.052 µg/mL
- CDC, EC50 of lysis, Wien-133 cells [1]: 0.015 µg/mL
- binding result [4]: no binding (tested: 0.005-10 µg/mL)
- CDC, percent lysis of Ramos and Daudi cells [2]: ≤ 100%
B2: IgG1-C-E430G (antibody)
heavy: QVQLVQSGAEVKKPGSSVKVSCKAFGGTFSSYAISWVRQAPGQGLEWMGRIIRFLGIANYAQKFQGRVTLIADKSTNTAYMELSSLRSEDTAVYYCAGEPGERDPDAVDIWGQGTMVTVSSASTKGPSVFPLAPSSKSTSGGTAALGCLVKDYFPEPVTVSWNSGALTSGVHTFPAVLQSSGLYSLSSVVTVPSSSLGTQTYICNVNHKPSNTKVDKRV[not shown - human IgG1 Fc with E430G (EU numbers)]
light: [not shown - about 200 residues]
notes: also called IgG-C-E430G

Where two headings read alike, the source gives them in different places. One block for each binder: values may come before it.
